# Measurements published in PubChem BioAssay AID1347120 (National Center for Advancing Translational Sciences (NCATS), 2019).
# “And” between values parts separate entries of the source, which are not always exact repeats. Identical values can stand only once. In all, about 390,000 compounds went through this assay and about 930 (0.24%) were called active. This list was built around the results that the source calls inconclusive (neither active nor inactive); the mix of calls is not that of the screen. Calls come from the whole dose curve; as a rule, active = well fitted activation curve with a large enough effect; inconclusive = small, poorly fitted or top-dose-only effect; inactive = no such curve, though single readings can be large or run the other way. Where the call is inconclusive, the potency comes from a doubtful curve fit.
# Experiment: qHTS for Suppressors of FUS Proteinopathy: Primary screen using FUS-linked yeast assay; note: nearly all actives have a fitted effect of over 55% in size
# Details: S. cerevisiae FUS-expressing, OD600, 24 h; Potency: growth rescue; series mostly up to 76.6 µM
# How it was run: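 Absorbance at 600 nm, taken 24hr after compound addition, measured rescue of FUS-yeast growth at 30C. Induction used 2% galactose with seeding at OD 0.005. Controls: CP55940 from 92uM final, DMSO only.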
# Potency is the fitted concentration of half-maximal effect; tags give direction and shape of the fitted curve.
row,Compound,Potency
1,O=C(NCc1cccs1)c1ccc2c(c1)N(Cc1ccccc1Cl)C(=O)c1ccccc1S2,"inconclusive: 3.55 µM [activator, full curve]"
2,C=CCn1c(=NC(=O)c2ccc(S(=O)(=O)N3CCc4ccccc4C3)cc2)sc2cc(S(N)(=O)=O)ccc21,"inconclusive: 17.8 µM [activator, partial curve]"
3,CCOc1ccc(CCN2C(=S)N([C@@H](Cc3ccccc3)CN3CCC[C@@H]3CN3C(=S)NC[C@@H]3CC(C)C)C[C@@H]2Cc2ccccc2)cc1,"inconclusive: 25.1 µM [activator, partial curve, poor fit]"
4,CCn1c(C)cc2c(c1=O)C(c1ccncc1)C(C#N)=C(N)O2 (stereo not given),inactive
5,CCOC(=O)N1CCN(S(=O)(=O)c2ccc(C(=O)Nc3sc4c(c3C(N)=O)CCN(CC)C4)cc2)CC1,"inconclusive: 3.16 µM [activator, full curve]"
6,O=C(Nc1cc(S(=O)(=O)N2CCCCC2)ccc1O)c1ccccc1NS(=O)(=O)c1ccc(F)cc1,"inconclusive: 15.8 µM [activator, partial curve, poor fit] and inconclusive: 28.2 µM [activator, partial curve]"
7,Cc1cccc(Cn2c(O)c(N=NC(=S)Nc3ccccc3F)c3ccccc32)c1,inactive
8,COCc1cc(CN2CCCC2)c(O)c2ncccc12,"inconclusive: 31.6 µM [activator, single point]"
9,O=C(OCC#CCSc1nnc(-c2cccc3ccccc23)o1)c1ccncc1,"inconclusive: 22.4 µM [activator, single point]"
10,Cc1ccccc1-c1ncnn1-c1sc2c(c1C#N)CCCCC2,inactive
11,Cc1ccc(NC2=CC(c3ccccc3F)N(c3ccc(C)cc3)C2=O)cc1 (stereo not given),"inconclusive: 39.8 µM [activator, single point]"
12,CCCCCOC(=O)Cc1c(O)c2ccccc2n(C)c1=O,inactive
13,Cc1ccc(-c2cccc(C(=O)NCCc3ccccc3)n2)c2ccccc12,"inconclusive: 31.6 µM [activator, partial curve, poor fit]"
14,CCCOc1ccc(N2CC(C(=O)Nc3cccc(Cl)c3Cl)CC2=O)cc1 (stereo not given),inactive
15,O=C(CCC(=O)N1CCN(C2c3ccccc3-c3ccccc32)CC1)Nc1nnc(C(F)(F)F)s1,inactive
16,CC(C)S(=O)(=O)C1=NSC2=NC(=O)/C(=C\c3ccc(-c4cccc(C(=O)O)c4)o3)C(=N)N21,"inconclusive: 22.4 µM [activator, single point]"
17,COC(=O)CSc1ncnc2scc(-c3ccccc3)c12,"inconclusive: 50.1 µM [activator, single point]"
18,CC(C)(C)c1ccc(OCCC(=O)Nc2ccc(N3CCOCC3)cc2N2CCOCC2)cc1,active: 39.8 µM
19,CCOc1ccc(CCNC(=O)CN2C(=O)COc3ccc(S(=O)(=O)N4CCC(C)CC4)cc32)cc1,"inconclusive: 22.4 µM [activator, partial curve, poor fit]"
20,COc1ccc(C2C3=C(Nc4ncnn42)c2ccccc2CCC3)cc1 (stereo not given),inactive

row,Compound,Potency
1,O=C(CN1CCCC1)Nc1ccc(Br)cc1[N+](=O)[O-],inactive
2,CN(C(=O)c1cccc(NC(=O)Cc2ccc(NC(=O)C3CCCN(C(=O)C4CCCCC4)C3)cc2)c1)C1CCCC1 (stereo not given),"inconclusive: 50.1 µM [activator, single point]"
3,O=C(CCSc1ccc(Br)cc1)c1ccc(O)cc1,inactive
4,CCOc1ccc(NC(=O)c2cn(-c3ccc(OCC)cc3)c(=O)c3cc(OC)c(OC)cc23)cc1,"inconclusive: 39.8 µM [activator, single point]"
5,CC(C1CC2CCC1C2)n1c(COc2ccccc2F)nnc1SCC(N)=O (stereo not given),"inconclusive: 25.1 µM [activator, single point]"
6,Cc1ccc(-n2nc3c(N4CCC(C(=O)N5CCCCC5)CC4)nnc(C)c3c2C)cc1,inactive
7,CC1CC(C)(C)CC2(C1)NC(=O)N(CC(=O)Nc1ccc(N3CCCCC3)cc1)C2=O (stereo not given),"inconclusive: 28.2 µM [activator, single point]"
8,CC(C)CC1Nc2ncnc(N3CCCCC3)c2N(Cc2ccc(Br)cc2)C1=O (stereo not given),inactive
9,COc1ccccc1Cc1c(-c2ccc(Cl)cc2)nc2c(C)cc(Br)cn12,"inconclusive: 50.1 µM [activator, single point]"
10,CCOc1ccc(NC(=O)CN2CCN(CC(=O)Nc3ccc(Cl)c(C(F)(F)F)c3)CC2)cc1,"inconclusive: 14.1 µM [activator, partial curve, poor fit]"
11,C=CCn1c(=S)[nH]c2scc(-c3ccco3)c2c1=O,"inconclusive: 35.5 µM [activator, single point]"
12,O=C(CSc1nnc(-c2cccs2)o1)c1cccc([N+](=O)[O-])c1,inactive
13,Cc1ccc(S(=O)(=O)N2[C@@H](c3ccc(C(C)(C)C)cc3)C(C(=O)O)=CC[C@H]2c2ccc(C(C)C)cc2)cc1,"inconclusive: 11.2 µM [activator, full curve, poor fit]"
14,O=CNc1cc(-c2cccc(O)c2)cn2c(-c3ccc(F)cc3)cnc12,inactive
15,CC(=O)Nc1ccc(S(=O)(=O)Nc2cccc(-c3ccc(N4CCC(C)CC4)nn3)c2)cc1,"inconclusive: 50.1 µM [activator, single point]"
16,CCc1ccc(CN(C(=O)COc2c(C)cccc2C)C2CCS(=O)(=O)C2)cc1 (stereo not given),"inconclusive: 31.6 µM [activator, single point]"
17,O=C(N/N=C/c1sc(N2CCOCC2)nc1-c1ccccc1)c1cccc(S(=O)(=O)N2CCOCC2)c1,"inconclusive: 17.8 µM [activator, partial curve, poor fit]"
18,COc1cc(/C=C/C(=O)c2ccc(NS(=O)(=O)c3ccc(C)cc3)cc2)cc(OC)c1O,"inconclusive: 31.6 µM [activator, partial curve, poor fit]"
19,O=C(Nc1cc(S(=O)(=O)N2CCCCC2)ccc1N1CCOCC1)c1ccc(F)cc1,"inconclusive: 50.1 µM [activator, single point]"
20,CC(C)OCCCn1c(SCc2cccc(Br)c2)nc2c(sc3ccccc32)c1=O,inactive
